Assay results published in US20160194399A1 (CYTOMX THERAPEUTICS, published 2016).

Target: T1, Recombinant cynomolgus (Macaca fascicularis) CD3ε with a polyhistidine affinity tag at the C-terminus (cynomolgus (Macaca fascicularis), UniProt Q95LI5 22-117)
T1 construct: Bought protein; also called cynomolgus CD3ε; cyno CD3ε
T1 sequence (looked up): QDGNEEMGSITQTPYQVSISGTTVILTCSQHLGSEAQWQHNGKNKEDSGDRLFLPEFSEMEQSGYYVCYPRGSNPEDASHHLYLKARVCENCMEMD
Experiment: ELISA, cynomolgus CD3ε-His coated at 0.1 µg/ml, anti-human Fc-HRP

B1: Antibody SP34scFv(HvLv)-Fc fusion (Fc fusion)
chain: EVQLVESGGGLVQPKGSLKLSCAASGFTFNTYAMNWVRQAPGKGLEWVARIRSKYNNYATYYADSVKDRFTISRDDSQSILYLQMNNLKTEDTAMYYCVRHGNFGNSYVSWFAYWGQGTLVTVSAGGGGSGGGGSGGGGSQAVVTQESALTTSPGETVTLTCRSSTGAVTTSNYANWVQEKPDHLFTGLIGGTNKRAPGVPARFSGSLIGDKAALTITGAQTEDEAIYFCALWYSNLWVFGGGTKLTVLGGSLD[human IgG1 Fc with C220S (EU numbers) skipped]
notes: SP34 scFv (Hv-linker-Lv) fused to a human IgG1 Fc; unmasked; also called SP34 HvLv scFv Fc; SP34 HvLv Fc
B1: binds.

B2: Antibody SP34scFv(LvHv)-Fc fusion (Fc fusion)
chain: QAVVTQESALTTSPGETVTLTCRSSTGAVTTSNYANWVQEKPDHLFTGLIGGTNKRAPGVPARFSGSLIGDKAALTITGAQTEDEAIYFCALWYSNLWVFGGGTKLTVLGGGGSGGGGSGGGGSEVQLVESGGGLVQPKGSLKLSCAASGFTFNTYAMNWVRQAPGKGLEWVARIRSKYNNYATYYADSVKDRFTISRDDSQSILYLQMNNLKTEDTAMYYCVRHGNFGNSYVSWFAYWGQGTLVTVSAGGSLD[human IgG1 Fc with C220S (EU numbers) skipped]
notes: SP34 scFv (Lv-linker-Hv) fused to a human IgG1 Fc; also called SP34 LvHv scFv Fc; SP34 LvHv
B2: binds.
